# Assay results as given in the supplement of paper PMC8728848.
# The list shows a part of the results.
# B1: RNase 1 (Homo sapiens) (protein)
# chain: KESRAKKFQRQHMDSDSSPSSSSTYCNQMMRRRNMTQGRCKPVNTFVHEPLVDVQNVCFQEKVTCKNGQGNCYKSNSSMHITDCRLTNGSRYPNCAYRTSPKERHIIVACEGSPYVPVHFDASVEDST
# Columns and labels:
# Test in all cases: glycan array binding signal (z-score within array); higher = stronger binding
# Conditions in all cases: glycan notation: IUPAC condensed, linker removed
# [1] = target: Gal(b1-3)[Neu5Ac(a2-6)]GalNAc
# Method in brief: (§1)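 Negative Z-scores can be read as non-binding. The Z-score is calculated within each array and then averaged across arrays of one protein sequence at different concentrations or buffers and across linkers. Arrays, 3228 in all, were curated from the Consortium for Functional Glycomics database and kept only where the protein sequence was available.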
# [2] = target: Gal(b1-3)[Neu5Ac(a2-6)]GlcNAc
# Method in brief: as §1
# [3] = target: Gal(b1-3)[Neu5Ac(a2-6)]GlcNAc(a1-4)Gal(b1-4)Glc
# Method in brief: as §1
# [4] = target: Gal(b1-3)[Neu5Ac(b2-6)]GlcNAc
# Method in brief: as §1
# [5] = target: Gal(b1-4)GalNAc(a1-3)[Fuc(a1-2)]Gal(b1-4)GlcNAc
# Method in brief: as §1
# [6] = target: Gal(b1-4)GalNAc(b1-3)[Fuc(a1-2)]Gal(b1-4)GlcNAc
# Method in brief: as §1
# Gal(b1-4)Glc = target: Gal(b1-4)Glc
# Method in brief: as §1
# Gal(b1-4)Glc6S = target: Gal(b1-4)Glc6S
# Method in brief: as §1
# Gal(b1-4)GlcNAc = target: Gal(b1-4)GlcNAc
# Method in brief: as §1
# [7] = target: Gal(b1-4)GlcNAc(b1-2)Man(a1-3)[Gal(b1-4)GlcNAc(b1-2)Man(a1-6)]Man(b1-4)GlcNAc(b1-4)GlcNAc
# Method in brief: as §1
# [8] = target: Gal(b1-4)GlcNAc(b1-3)Gal(b1-4)Glc
# Method in brief: as §1
# [9] = target: Gal(b1-4)GlcNAc(b1-3)Gal(b1-4)GlcNAc
# Method in brief: as §1
# [10] = target: Gal(b1-4)GlcNAc(b1-3)Gal(b1-4)GlcNAc(b1-3)Gal(b1-4)GlcNAc
# Method in brief: as §1
# [11] = target: Gal(b1-4)GlcNAc(b1-3)Gal(b1-4)[Fuc(a1-3)]GlcNAc(b1-3)Gal(b1-4)[Fuc(a1-3)]GlcNAc
# Method in brief: as §1
# [12] = target: Gal(b1-4)GlcNAc(b1-3)GalNAc
# Method in brief: as §1
# [13] = target: Gal(b1-4)GlcNAc(b1-3)[Gal(b1-4)GlcNAc(b1-6)]GalNAc
# Method in brief: as §1
# [14] = target: Gal(b1-4)GlcNAc(b1-6)GalNAc
# Method in brief: as §1
# [15] = target: Gal(b1-4)GlcNAc(b1-6)[Gal(b1-3)]GalNAc
# Method in brief: as §1
# [16] = target: Gal(b1-4)GlcNAc(b1-6)[Gal(b1-3)]GlcNAc
# Method in brief: as §1
# Gal3S(b1-3)GalNAc = target: Gal3S(b1-3)GalNAc
# Method in brief: as §1
# Gal3S(b1-3)GlcNAc = target: Gal3S(b1-3)GlcNAc
# Method in brief: as §1
# [17] = target: Gal3S(b1-3)[Fuc(a1-4)]GlcNAc
# Method in brief: as §1
# Gal3S(b1-4)Glc = target: Gal3S(b1-4)Glc
# Method in brief: as §1
# Gal3S(b1-4)Glc6S = target: Gal3S(b1-4)Glc6S
# Method in brief: as §1
# Gal3S(b1-4)GlcNAc = target: Gal3S(b1-4)GlcNAc
# Method in brief: as §1
# Gal3S(b1-4)GlcNAc6S = target: Gal3S(b1-4)GlcNAc6S
# Method in brief: as §1
# Gal3S6S(b1-4)GlcNAc = target: Gal3S6S(b1-4)GlcNAc
# Method in brief: as §1
# Gal3S6S(b1-4)GlcNAc6S = target: Gal3S6S(b1-4)GlcNAc6S
# Method in brief: as §1
# Gal4S(b1-4)GlcNAc = target: Gal4S(b1-4)GlcNAc
# Method in brief: as §1
# Gal4S6S(b1-4)GlcNAc = target: Gal4S6S(b1-4)GlcNAc
# Method in brief: as §1
# Gal6S(b1-4)Glc = target: Gal6S(b1-4)Glc
# Method in brief: as §1
# Gal6S(b1-4)Glc6S = target: Gal6S(b1-4)Glc6S
# Method in brief: as §1
# Gal6S(b1-4)GlcNAc = target: Gal6S(b1-4)GlcNAc
# Method in brief: as §1
# GalNAc(a1-3)Gal = target: GalNAc(a1-3)Gal
# Method in brief: as §1
# GalNAc(a1-3)GalNAc = target: GalNAc(a1-3)GalNAc
# Method in brief: as §1
# [18] = target: GalNAc(b1-3)Gal(a1-4)Gal(b1-4)GlcNAc
# Method in brief: as §1
# GalNAc(b1-4)GlcNAc = target: GalNAc(b1-4)GlcNAc
# Method in brief: as §1
# Glc(a1-4)Glc = target: Glc(a1-4)Glc
# Method in brief: as §1
# Glc(a1-6)Glc(a1-6)Glc = target: Glc(a1-6)Glc(a1-6)Glc
# Method in brief: as §1
# Glc(b1-4)Glc = target: Glc(b1-4)Glc
# Method in brief: as §1
# Glc(b1-6)Glc = target: Glc(b1-6)Glc
# Method in brief: as §1
# GlcA(b1-3)Gal = target: GlcA(b1-3)Gal
# Method in brief: as §1
# GlcA(b1-6)Gal = target: GlcA(b1-6)Gal
# Method in brief: as §1
# [19] = target: GlcNAc(a1-3)Gal(b1-4)GlcNAc
# Method in brief: as §1
# [20] = target: GlcNAc(a1-6)Gal(b1-4)GlcNAc
# Method in brief: as §1
# [21] = target: GlcNAc(b1-2)Gal(b1-3)GlcNAc
# Method in brief: as §1
# [22] = target: GlcNAc(b1-2)Man(a1-3)[GlcNAc(b1-2)Man(a1-6)]Man(b1-4)GlcNAc(b1-4)GlcNAc
# Method in brief: as §1
# GlcNAc(b1-3)Gal = target: GlcNAc(b1-3)Gal
# Method in brief: as §1
# [23] = target: GlcNAc(b1-3)Gal(b1-3)GalNAc
# Method in brief: as §1
# GlcNAc(b1-3)Gal(b1-4)Glc = target: GlcNAc(b1-3)Gal(b1-4)Glc
# Method in brief: as §1
# [24] = target: GlcNAc(b1-3)Gal(b1-4)GlcNAc
# Method in brief: as §1
# [25] = target: GlcNAc(b1-3)Gal(b1-4)GlcNAc(b1-3)Gal(b1-4)GlcNAc
# Method in brief: as §1
# GlcNAc(b1-3)GalNAc = target: GlcNAc(b1-3)GalNAc
# Method in brief: as §1
# [26] = target: GlcNAc(b1-3)[GlcNAc(b1-4)][GlcNAc(b1-6)]GlcNAc
# Method in brief: as §1
# [27] = target: GlcNAc(b1-3)[GlcNAc(b1-6)]Gal(b1-4)GlcNAc
# Method in brief: as §1
# [28] = target: GlcNAc(b1-3)[GlcNAc(b1-6)]GlcNAc
# Method in brief: as §1
# [29] = target: GlcNAc(b1-4)Gal(b1-4)GlcNAc
# Method in brief: as §1
# [30] = target: GlcNAc(b1-4)GlcNAc(b1-4)GlcNAc
# Method in brief: as §1
# [31] = target: GlcNAc(b1-4)GlcNAc(b1-4)GlcNAc(b1-4)GlcNAc(b1-4)GlcNAc
# Method in brief: as §1
# [32] = target: GlcNAc(b1-4)GlcNAc(b1-4)GlcNAc(b1-4)GlcNAc(b1-4)GlcNAc(b1-4)GlcNAc
# Method in brief: as §1
# [33] = target: GlcNAc(b1-4)[GlcNAc(b1-6)]GalNAc
# Method in brief: as §1
# [34] = target: GlcNAc(b1-6)Gal(b1-4)GlcNAc
# Method in brief: as §1
# GlcNAc(b1-6)GalNAc = target: GlcNAc(b1-6)GalNAc
# Method in brief: as §1
# Kdn(a2-3)Gal(b1-3)GlcNAc = target: Kdn(a2-3)Gal(b1-3)GlcNAc
# Method in brief: as §1
binder,measurement,setting,value
B1,glycan array binding signal (z-score),[1],-0.232
same,glycan array binding signal (z-score),[2],-0.195
same,glycan array binding signal (z-score),[3],0.379
same,glycan array binding signal (z-score),[4],-0.224
same,glycan array binding signal (z-score),[5],-0.115
same,glycan array binding signal (z-score),[6],-0.218
same,glycan array binding signal (z-score),Gal(b1-4)Glc,-0.073
same,glycan array binding signal (z-score),Gal(b1-4)Glc6S,-0.14
same,glycan array binding signal (z-score),Gal(b1-4)GlcNAc,-0.196
same,glycan array binding signal (z-score),[7],-0.171
same,glycan array binding signal (z-score),[8],0.369
same,glycan array binding signal (z-score),[9],-0.165
same,glycan array binding signal (z-score),[10],-0.224
same,glycan array binding signal (z-score),[11],-0.101
same,glycan array binding signal (z-score),[12],-0.22
same,glycan array binding signal (z-score),[13],-0.216
same,glycan array binding signal (z-score),[14],-0.221
same,glycan array binding signal (z-score),[15],-0.205
same,glycan array binding signal (z-score),[16],-0.197
same,glycan array binding signal (z-score),Gal3S(b1-3)GalNAc,-0.186
same,glycan array binding signal (z-score),Gal3S(b1-3)GlcNAc,-0.127
same,glycan array binding signal (z-score),[17],-0.179
same,glycan array binding signal (z-score),Gal3S(b1-4)Glc,-0.184
same,glycan array binding signal (z-score),Gal3S(b1-4)Glc6S,-0.033
same,glycan array binding signal (z-score),Gal3S(b1-4)GlcNAc,-0.17
same,glycan array binding signal (z-score),Gal3S(b1-4)GlcNAc6S,-0.098
same,glycan array binding signal (z-score),Gal3S6S(b1-4)GlcNAc,-0.091
same,glycan array binding signal (z-score),Gal3S6S(b1-4)GlcNAc6S,-0.178
same,glycan array binding signal (z-score),Gal4S(b1-4)GlcNAc,0.34
same,glycan array binding signal (z-score),Gal4S6S(b1-4)GlcNAc,-0.035
same,glycan array binding signal (z-score),Gal6S(b1-4)Glc,-0.073
same,glycan array binding signal (z-score),Gal6S(b1-4)Glc6S,-0.067
same,glycan array binding signal (z-score),Gal6S(b1-4)GlcNAc,-0.2
same,glycan array binding signal (z-score),GalNAc(a1-3)Gal,-0.222
same,glycan array binding signal (z-score),GalNAc(a1-3)GalNAc,-0.137
same,glycan array binding signal (z-score),[18],0.455
same,glycan array binding signal (z-score),GalNAc(b1-4)GlcNAc,-0.186
same,glycan array binding signal (z-score),Glc(a1-4)Glc,-0.235
same,glycan array binding signal (z-score),Glc(a1-6)Glc(a1-6)Glc,-0.187
same,glycan array binding signal (z-score),Glc(b1-4)Glc,-0.207
same,glycan array binding signal (z-score),Glc(b1-6)Glc,-0.174
same,glycan array binding signal (z-score),GlcA(b1-3)Gal,-0.161
same,glycan array binding signal (z-score),GlcA(b1-6)Gal,-0.088
same,glycan array binding signal (z-score),[19],-0.233
same,glycan array binding signal (z-score),[20],-0.17
same,glycan array binding signal (z-score),[21],0.031
same,glycan array binding signal (z-score),[22],-0.106
same,glycan array binding signal (z-score),GlcNAc(b1-3)Gal,-0.181
same,glycan array binding signal (z-score),[23],-0.194
same,glycan array binding signal (z-score),GlcNAc(b1-3)Gal(b1-4)Glc,-0.099
same,glycan array binding signal (z-score),[24],-0.212
same,glycan array binding signal (z-score),[25],-0.245
same,glycan array binding signal (z-score),GlcNAc(b1-3)GalNAc,-0.251
same,glycan array binding signal (z-score),[26],-0.069
same,glycan array binding signal (z-score),[27],-0.22
same,glycan array binding signal (z-score),[28],-0.116
same,glycan array binding signal (z-score),[29],-0.174
same,glycan array binding signal (z-score),[30],-0.038
same,glycan array binding signal (z-score),[31],-0.028
same,glycan array binding signal (z-score),[32],-0.15
same,glycan array binding signal (z-score),[33],-0.122
same,glycan array binding signal (z-score),[34],-0.165
same,glycan array binding signal (z-score),GlcNAc(b1-6)GalNAc,-0.213
same,glycan array binding signal (z-score),Kdn(a2-3)Gal(b1-3)GlcNAc,-0.162
